# Data as given in the supplement of paper PMC8728848.
# The list shows a part of the results.
# Assays:
# Test in all cases: glycan array binding signal (z-score within array); higher = stronger binding
# Settings in all cases: glycan notation: IUPAC condensed, linker removed; mutation: A146Q
# [1] = target: Fuc(a1-2)Gal
# Method in brief: (§1)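 Columns mapping to the same glycan were averaged after glycan names were converted to IUPAC-condensed notation. The data come from 3228 arrays in the Consortium for Functional Glycomics database, limited to those with an available protein sequence. Binding is reported as a within-array Z-score averaged across arrays of one protein sequence and across linkers.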
# [2] = target: Fuc(a1-2)Gal(b1-3)GalNAc
# Method in brief: as §1
# [3] = target: Fuc(a1-2)Gal(b1-3)GalNAc(a1-3)[Fuc(a1-2)]Gal(b1-4)Glc
# Method in brief: as §1
# [4] = target: Fuc(a1-2)Gal(b1-3)GalNAc(a1-3)[Fuc(a1-2)]Gal(b1-4)GlcNAc
# Method in brief: as §1
# [5] = target: Fuc(a1-2)Gal(b1-3)GalNAc(b1-3)Gal
# Method in brief: as §1
# [6] = target: Fuc(a1-2)Gal(b1-3)GalNAc(b1-3)Gal(a1-4)Gal(b1-4)Glc
# Method in brief: as §1
# [7] = target: Fuc(a1-2)Gal(b1-3)GalNAc(b1-4)[Neu5Ac(a2-3)]Gal(b1-4)Glc
# Method in brief: as §1
# [8] = target: Fuc(a1-2)Gal(b1-3)GlcNAc
# Method in brief: as §1
# [9] = target: Fuc(a1-2)Gal(b1-3)GlcNAc(b1-2)Man(a1-3)[Fuc(a1-2)Gal(b1-3)GlcNAc(b1-2)Man(a1-6)]Man(b1-4)GlcNAc(b1-4)GlcNAc
# Method in brief: as §1
# [10] = target: Fuc(a1-2)Gal(b1-3)GlcNAc(b1-3)Gal(b1-4)Glc
# Method in brief: as §1
# [11] = target: Fuc(a1-2)Gal(b1-3)GlcNAc(b1-3)[Fuc(a1-3)[Gal(b1-4)]GlcNAc(b1-6)]Gal(b1-4)Glc
# Method in brief: as §1
# [12] = target: Fuc(a1-2)Gal(b1-3)[Fuc(a1-4)]GlcNAc
# Method in brief: as §1
# [13] = target: Fuc(a1-2)Gal(b1-3)[Fuc(a1-4)]GlcNAc(b1-2)Man(a1-3)[Fuc(a1-2)Gal(b1-3)[Fuc(a1-4)]GlcNAc(b1-2)Man(a1-6)]Man(b1-4)GlcNAc(b1-4)GlcNAc
# Method in brief: as §1
# [14] = target: Fuc(a1-2)Gal(b1-3)[Fuc(a1-4)]GlcNAc(b1-3)[Fuc(a1-3)[Gal(b1-4)]GlcNAc(b1-6)]Gal(b1-4)Glc
# Method in brief: as §1
# [15] = target: Fuc(a1-2)Gal(b1-3)[Fuc(a1-4)]GlcNAc(b1-3)[Gal(b1-4)GlcNAc(b1-6)]Gal(b1-4)Glc
# Method in brief: as §1
# [16] = target: Fuc(a1-2)Gal(b1-4)Glc
# Method in brief: as §1
# [17] = target: Fuc(a1-2)Gal(b1-4)Glc6S
# Method in brief: as §1
# [18] = target: Fuc(a1-2)Gal(b1-4)GlcNAc
# Method in brief: as §1
# [19] = target: Fuc(a1-2)Gal(b1-4)GlcNAc(b1-2)Man(a1-3)[Fuc(a1-2)Gal(b1-4)GlcNAc(b1-2)Man(a1-6)]Man(b1-4)GlcNAc(b1-4)GlcNAc
# Method in brief: as §1
# [20] = target: Fuc(a1-2)Gal(b1-4)GlcNAc(b1-3)Gal(b1-4)GlcNAc
# Method in brief: as §1
# [21] = target: Fuc(a1-2)Gal(b1-4)GlcNAc(b1-3)Gal(b1-4)GlcNAc(b1-3)Gal(b1-4)GlcNAc
# Method in brief: as §1
# [22] = target: Fuc(a1-2)Gal(b1-4)GlcNAc(b1-3)GalNAc
# Method in brief: as §1
# [23] = target: Fuc(a1-2)Gal(b1-4)GlcNAc6S
# Method in brief: as §1
# [24] = target: Fuc(a1-2)Gal(b1-4)[Fuc(a1-3)]GlcNAc
# Method in brief: as §1
# [25] = target: Fuc(a1-2)Gal(b1-4)[Fuc(a1-3)]GlcNAc(b1-2)Man(a1-3)[Fuc(a1-2)Gal(b1-4)[Fuc(a1-3)]GlcNAc(b1-2)Man(a1-6)]Man(b1-4)GlcNAc(b1-4)GlcNAc
# Method in brief: as §1
# [26] = target: Fuc(a1-2)Gal(b1-4)[Fuc(a1-3)]GlcNAc(b1-3)Gal(b1-4)[Fuc(a1-3)]GlcNAc
# Method in brief: as §1
# [27] = target: Fuc(a1-2)Gal(b1-4)[Fuc(a1-3)]GlcNAc(b1-3)Gal(b1-4)[Fuc(a1-3)]GlcNAc(b1-3)Gal(b1-4)[Fuc(a1-3)]GlcNAc
# Method in brief: as §1
# [28] = target: Fuc(a1-2)Gal6S(b1-4)Glc
# Method in brief: as §1
# [29] = target: Fuc(a1-2)Gal6S(b1-4)Glc6S
# Method in brief: as §1
# [30] = target: Fuc(a1-2)Gal6S(b1-4)GlcNAc
# Method in brief: as §1
# [31] = target: Fuc(a1-2)[Gal(a1-3)]Gal
# Method in brief: as §1
# [32] = target: Fuc(a1-2)[Gal(a1-3)]Gal(b1-3)GlcNAc
# Method in brief: as §1
# [33] = target: Fuc(a1-2)[Gal(a1-3)]Gal(b1-3)GlcNAc(b1-2)Man(a1-3)[Fuc(a1-2)[Gal(a1-3)]Gal(b1-3)GlcNAc(b1-2)Man(a1-6)]Man(b1-4)GlcNAc(b1-4)GlcNAc
# Method in brief: as §1
# [34] = target: Fuc(a1-2)[Gal(a1-3)]Gal(b1-4)Glc
# Method in brief: as §1
# [35] = target: Fuc(a1-2)[Gal(a1-3)]Gal(b1-4)GlcNAc
# Method in brief: as §1
# [36] = target: Fuc(a1-2)[Gal(a1-3)]Gal(b1-4)GlcNAc(b1-2)Man(a1-3)[Fuc(a1-2)[Gal(a1-3)]Gal(b1-4)GlcNAc(b1-2)Man(a1-6)]Man(b1-4)GlcNAc(b1-4)GlcNAc
# Method in brief: as §1
# [37] = target: Fuc(a1-2)[Gal(a1-3)]Gal(b1-4)[Fuc(a1-3)]GlcNAc
# Method in brief: as §1
# [38] = target: Fuc(a1-2)[Gal(a1-4)]Gal(b1-4)GlcNAc
# Method in brief: as §1
# [39] = target: Fuc(a1-2)[GalNAc(a1-3)]Gal
# Method in brief: as §1
# [40] = target: Fuc(a1-2)[GalNAc(a1-3)]Gal(b1-3)GalNAc(a1-3)[Fuc(a1-2)]Gal(b1-4)GlcNAc
# Method in brief: as §1
# [41] = target: Fuc(a1-2)[GalNAc(a1-3)]Gal(b1-3)GlcNAc
# Method in brief: as §1
# [42] = target: Fuc(a1-2)[GalNAc(a1-3)]Gal(b1-3)GlcNAc(b1-2)Man(a1-3)[Fuc(a1-2)[GalNAc(a1-3)]Gal(b1-3)GlcNAc(b1-2)Man(a1-6)]Man(b1-4)GlcNAc(b1-4)GlcNAc
# Method in brief: as §1
# [43] = target: Fuc(a1-2)[GalNAc(a1-3)]Gal(b1-4)Glc
# Method in brief: as §1
# [44] = target: Fuc(a1-2)[GalNAc(a1-3)]Gal(b1-4)GlcNAc
# Method in brief: as §1
# [45] = target: Fuc(a1-2)[GalNAc(a1-3)]Gal(b1-4)GlcNAc(b1-2)Man(a1-3)[Fuc(a1-2)[GalNAc(a1-3)]Gal(b1-4)GlcNAc(b1-2)Man(a1-6)]Man(b1-4)GlcNAc(b1-4)GlcNAc
# Method in brief: as §1
# [46] = target: Fuc(a1-2)[GalNAc(a1-3)]Gal(b1-4)GlcNAc(b1-3)Gal(b1-4)GlcNAc
# Method in brief: as §1
# [47] = target: Fuc(a1-2)[GalNAc(a1-3)]Gal(b1-4)GlcNAc(b1-3)Gal(b1-4)GlcNAc(b1-3)Gal(b1-4)GlcNAc
# Method in brief: as §1
# [48] = target: Fuc(a1-2)[GalNAc(a1-3)]Gal(b1-4)[Fuc(a1-3)]GlcNAc
# Method in brief: as §1
# [49] = target: Fuc(a1-2)[GalNAc(a1-4)]Gal(b1-4)GlcNAc
# Method in brief: as §1
# [50] = target: Fuc(a1-2)[GalNAc(b1-3)]Gal
# Method in brief: as §1
# [51] = target: Fuc(a1-3)GlcNAc
# Method in brief: as §1
# [52] = target: Fuc(a1-3)[Gal(b1-4)]Glc6S
# Method in brief: as §1
# [53] = target: Fuc(a1-3)[Gal(b1-4)]GlcNAc
# Method in brief: as §1
# [54] = target: Fuc(a1-3)[Gal(b1-4)]GlcNAc(b1-2)Man(a1-3)[Fuc(a1-3)[Gal(b1-4)]GlcNAc(b1-2)Man(a1-6)]Man(b1-4)GlcNAc(b1-4)GlcNAc
# Method in brief: as §1
# [55] = target: Fuc(a1-3)[Gal(b1-4)]GlcNAc(b1-3)Gal(b1-3)[Fuc(a1-4)]GlcNAc
# Method in brief: as §1
# [56] = target: Fuc(a1-3)[Gal(b1-4)]GlcNAc(b1-3)GalNAc
# Method in brief: as §1
# [57] = target: Fuc(a1-3)[Gal(b1-4)]GlcNAc(b1-4)Gal(b1-4)[Fuc(a1-3)]GlcNAc
# Method in brief: as §1
# [58] = target: Fuc(a1-3)[Gal(b1-4)]GlcNAc(b1-4)Gal(b1-4)[Fuc(a1-3)]GlcNAc(b1-4)Gal(b1-4)[Fuc(a1-3)]GlcNAc
# Method in brief: as §1
# [59] = target: Fuc(a1-3)[Gal(b1-4)]GlcNAc(b1-6)[Gal(b1-3)GlcNAc(b1-3)]Gal(b1-4)Glc
# Method in brief: as §1
# [60] = target: Fuc(a1-3)[Gal(b1-4)]GlcNAc6S
# Method in brief: as §1
binder,measurement,setting,value
"Gal 3 (Homo sapiens), P17931 (protein) MADNFSLHDALSGSGNPNPQGWPGAWGNQPAGAGGYPGASYPGAYPGQAPPGAYPGQAPPGAYHGAPGAYPGAPAPGVYPGPPSGPGAYPSSGQPSAPGAYPATGPYGAPAGPLIVPYNLPLPGGVVPRMLITILGTVKPNANRIQLDFQRGNDVAFHFNPRFNENNRRVIVCNTKLDNNWGREERQSVFPFESGKPFKIQVLVEPDHFKVAVNDAHLLQYNHRVKKLNEISKLGISGDIDLTSASYTMI",glycan array binding signal (z-score),[1],-0.171
same,glycan array binding signal (z-score),[2],-0.2
same,glycan array binding signal (z-score),[3],-0.201
same,glycan array binding signal (z-score),[4],-0.186
same,glycan array binding signal (z-score),[5],-0.177
same,glycan array binding signal (z-score),[6],-0.193
same,glycan array binding signal (z-score),[7],-0.19
same,glycan array binding signal (z-score),[8],-0.105
same,glycan array binding signal (z-score),[9],-0.147
same,glycan array binding signal (z-score),[10],0.176
same,glycan array binding signal (z-score),[11],-0.199
same,glycan array binding signal (z-score),[12],-0.192
same,glycan array binding signal (z-score),[13],-0.192
same,glycan array binding signal (z-score),[14],-0.195
same,glycan array binding signal (z-score),[15],-0.015
same,glycan array binding signal (z-score),[16],-0.189
same,glycan array binding signal (z-score),[17],-0.188
same,glycan array binding signal (z-score),[18],0.166
same,glycan array binding signal (z-score),[19],0.701
same,glycan array binding signal (z-score),[20],1.45
same,glycan array binding signal (z-score),[21],2.14
same,glycan array binding signal (z-score),[22],-0.164
same,glycan array binding signal (z-score),[23],0.163
same,glycan array binding signal (z-score),[24],-0.199
same,glycan array binding signal (z-score),[25],-0.171
same,glycan array binding signal (z-score),[26],-0.201
same,glycan array binding signal (z-score),[27],-0.166
same,glycan array binding signal (z-score),[28],-0.201
same,glycan array binding signal (z-score),[29],-0.194
same,glycan array binding signal (z-score),[30],-0.19
same,glycan array binding signal (z-score),[31],-0.199
same,glycan array binding signal (z-score),[32],3.36
same,glycan array binding signal (z-score),[33],9.93
same,glycan array binding signal (z-score),[34],2.81
same,glycan array binding signal (z-score),[35],3.94
same,glycan array binding signal (z-score),[36],10.3
same,glycan array binding signal (z-score),[37],-0.187
same,glycan array binding signal (z-score),[38],-0.19
same,glycan array binding signal (z-score),[39],-0.167
same,glycan array binding signal (z-score),[40],-0.199
same,glycan array binding signal (z-score),[41],-0.178
same,glycan array binding signal (z-score),[42],-0.197
same,glycan array binding signal (z-score),[43],-0.195
same,glycan array binding signal (z-score),[44],-0.199
same,glycan array binding signal (z-score),[45],-0.192
same,glycan array binding signal (z-score),[46],-0.179
same,glycan array binding signal (z-score),[47],0.756
same,glycan array binding signal (z-score),[48],-0.2
same,glycan array binding signal (z-score),[49],-0.192
same,glycan array binding signal (z-score),[50],-0.195
same,glycan array binding signal (z-score),[51],-0.194
same,glycan array binding signal (z-score),[52],-0.169
same,glycan array binding signal (z-score),[53],-0.19
same,glycan array binding signal (z-score),[54],-0.18
same,glycan array binding signal (z-score),[55],-0.201
same,glycan array binding signal (z-score),[56],-0.191
same,glycan array binding signal (z-score),[57],-0.192
same,glycan array binding signal (z-score),[58],-0.203
same,glycan array binding signal (z-score),[59],-0.182
same,glycan array binding signal (z-score),[60],-0.197
